The campaign covered roughly 1,300 compounds. About 25 (2%) were called active. About 9% were inconclusive and are not listed. The call rests on the fitted dose curve; in most records, active means well fitted activation curve with a large enough effect; inconclusive means small, poorly fitted or top-dose-only effect; inactive means flat fitted curve, though single readings scatter. The list shows a part of the results.
Potency means the concentration at half of the fitted maximal effect.

UniProt P43220, sequence (P43220 whole entry, looked up): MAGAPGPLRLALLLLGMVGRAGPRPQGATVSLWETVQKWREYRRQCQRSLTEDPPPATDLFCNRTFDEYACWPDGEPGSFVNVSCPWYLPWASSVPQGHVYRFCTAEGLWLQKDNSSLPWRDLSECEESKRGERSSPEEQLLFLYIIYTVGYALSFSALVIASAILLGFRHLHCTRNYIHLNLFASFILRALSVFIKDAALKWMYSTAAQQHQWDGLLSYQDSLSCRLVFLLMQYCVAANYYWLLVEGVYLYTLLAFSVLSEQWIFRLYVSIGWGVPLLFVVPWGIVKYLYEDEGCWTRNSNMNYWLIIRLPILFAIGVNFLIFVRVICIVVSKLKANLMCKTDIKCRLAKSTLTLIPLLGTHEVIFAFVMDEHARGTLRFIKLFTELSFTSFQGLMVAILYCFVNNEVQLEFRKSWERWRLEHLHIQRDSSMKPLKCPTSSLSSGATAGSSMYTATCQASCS

For this assay, the target named is Glucagon-like peptide 1 receptor (Homo sapiens) (UniProt P43220). The experiment in a line: qHTS of GLP-1 Receptor Agonists: Hit Validation. On activation: % of control where 0% means no effect. To be noted: HEK293 GLP-1R, cAMP-response luciferase, 4-6 h; series mostly up to 46.1 µM; activation: at the top concentration. The gist of the method:
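Stably transfected HEK293 cells co-expressing GLP-1R and a cAMP-responsive luciferase reporter, plated 12 h before compound. Compound exposure 4-6 hr at 37 deg C, 5% CO2; luciferase luminescence read after 12 min detection at RT.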
(In qHTS, concentration-response curves come from the screen itself.)
As for `CCOC(=O)C1=C(COC(=O)c2ccc(OC)c(OC)c2OC)NC(=O)NC1C` (stereo unspecified), the “activation” value was inactive: 4.56%.

Consider `COc1ccc(-c2nc(C#N)c(NCc3ccc(C)cc3)o2)cc1OC`, for which the “activation” value was inactive: 26.6%.

In the case of `CCCCN(C)C(=O)c1cc2c(Cl)nc3ccccc3c2s1`, the “activation” value is inactive: 14.4%.

For `c1cn2c(Nc3ccc4c(c3)OCCO4)c(-c3ccc(N4CCOCC4)cc3)nc2cn1`, the “activation” value is inactive: 8.37%.

With `CCOCCCNC(=O)c1cc(Cl)c(NC(=O)C2=C(C)OCCS2)cc1OC`, the “activation” value is inactive: 2.8%.

As to `O=C1CC(/C=C/c2cccnc2)=Nc2ccccc2N1`, the “activation” value is inactive: -0.561%.

In the case of `COCCN(CCOC)C(=O)c1cc2sc3ccccc3c2s1`, the “activation” value was inactive: 0.303%.

On to `COc1cccc(C2CC(=O)Nc3cc(OC)c(OC)c(OC)c32)c1OC` (stereo unspecified), for which the “activation” value was inactive: 0.189%.

Consider `CCC(CC)C(=O)N1CCc2cc(OC)c(OC)cc2C1COc1ccc(C(=O)OC)cc1` (stereo unspecified), for which the “activation” value is inactive: 6.78%.

For the molecule `COc1ccccc1OCCSc1nnnn1C1CCCCC1`, the “activation” value was inactive: 1.55%.

In the case of `COc1cc(/C=N/NC(=O)c2ccc(CN3C(=O)c4cccc5cccc3c45)cc2)cc(OC)c1O`, the “activation” value is inactive: 13.7%.

For `N#Cc1nc(-c2ccco2)oc1N1CCc2ccccc2C1`, the “activation” value was inactive: 4.04%.

On to `CC1(C)C(CSc2nc3ccccc3[nH]2)C1(Cl)Cl` (stereo unspecified), for which the “activation” value was inactive: 18.8%.

Turning to `C[S+](CC[C@H](N)C(=O)O)C[C@H]1O[C@@H](n2cnc3c(N)ncnc32)[C@H](O)[C@@H]1O` (stereo partly specified), the “activation” value was inactive: 5.7%.

In the case of `C=C[C@@]1(C)CC(=O)[C@]2(O)[C@@]3(C)[C@@H](O)CCC(C)(C)[C@@H]3[C@H](OC(C)=O)[C@H](O)[C@@]2(C)O1`, the Potency is active: 9.2 µM.

On to `CCOC(=O)c1sc(N(Cc2ccccc2)C(=O)CSc2nnc(C3CC3)n2N)nc1C`, for which the “activation” value is inactive: 1.05%.

Turning to `CSCCC(NS(=O)(=O)c1ccc2c(c1)oc(=O)n2C)C(=O)NCc1ccccc1` (stereo unspecified), the “activation” value is inactive: -0.357%.

As for `Cc1ccc(/C=N/Nc2nnc(Cl)c3ccccc23)cc1`, the “activation” value is inactive: 0.523%.

Regarding `COc1ccc(OCc2cc(C(=O)N3CCCCCCC3)no2)c(Cl)c1`, the “activation” value was inactive: 0.561%.

`CNc1nc(Cl)nc(NC(C)(C)C)n1`: the “activation” value was inactive: 7.76%.

Consider `COc1ccc(-c2cc(C(F)F)n3ncc(C(=O)N4CCc5ccccc5C4)c3n2)cc1`, for which the “activation” value was inactive: 12.9%.

On to `CCCNC(=O)CSc1nc(COc2ccccc2)nc2ccccc12`, for which the “activation” value is inactive: 0.346%.

Turning to `CC(=O)NCCC(=O)Nc1sc2c(c1-c1nc3ccccc3[nH]1)CCCC2`, the “activation” value was inactive: -0.803%.

Turning to `Cc1ccsc1-c1nc(CN2CCN(C)C(=O)[C@@H]2C)c(C)o1`, the “activation” value is inactive: -0.276%.

As for `COc1ccc(N2CCc3c(C)nc(SC)nc32)cc1`, the “activation” value was inactive: 14.9%.

Regarding `CCOc1ccc(Cc2nc(N)nc(N)n2)cc1`, the “activation” value was inactive: -0.22%.

In the case of `COc1ccc(/C=N/N(C)C2=NS(=O)(=O)c3ccccc32)cc1OC`, the “activation” value is inactive: 2.14%.

As to `CCCCCCn1c(SCC(C)C)nc2c1c(=O)[nH]c(=O)n2C`, the “activation” value was inactive: 12.1%.

On to `CCOC(=O)c1sc(N)c(C(=O)OCC)c1C`, for which the “activation” value was inactive: 5.1%.

Turning to `CC(C)Sc1nc2c(c(=O)[nH]c(=O)n2C)n1Cc1ccc(Cl)cc1`, the “activation” value was inactive: 27.8%.

In the case of `O=C(CCC(=O)N1CCc2ccccc21)Nc1ccccc1`, the “activation” value was inactive: -0.0927%.

`COc1ccc(-c2csc(C3=C(O)CN(CCCN4CCCC4=O)C3=N)n2)cc1OC`: the “activation” value was inactive: 7.13%.

For `NS(=O)(=O)c1ccc(CNc2nc(-c3cccnc3)nc3ccccc23)cc1`, the “activation” value was inactive: 8.69%.

Consider `CCOC(=O)c1c(C)nc2cc(C)ccn12`, for which the “activation” value is inactive: 2.36%.

As for `CCOC(=O)C1=C(N)OC2=C(C(=O)CC(C)(C)C2)C1c1ccc(CC)s1` (stereo unspecified), the “activation” value was inactive: -0.682%.

As to `Nc1cc2c(cc1C(=O)c1ccc(Cl)cc1)OCCO2`, the “activation” value is inactive: 25%.

With `CC1CCN(CCCNC(=O)c2cc3c(Cl)nc4ccccc4c3s2)CC1`, the “activation” value was inactive: 4.09%.

For the molecule `CCOc1ccc(-c2nc(CSc3nncs3)cs2)cc1OC`, the “activation” value is inactive: 6.73%.

In the case of `CNS(=O)(=O)c1ccc2c3c(cccc13)C(=O)N2`, the “activation” value is inactive: 6.82%.

Take `CCN1CCN(C2=C(Cl)C(=O)N(Cc3ccccc3)C2=O)CC1`: the “activation” value is inactive: 4.15%.

Turning to `COc1cc(-c2cc3nc4ccccc4n3c(N)c2C#N)cc(OC)c1OC`, the “activation” value was inactive: 11.5%.

In the case of `COc1ccc(-c2sc3cc(OC)c(OC)cc3c2C#CC(C)(C)O)cc1`, the “activation” value was inactive: 2.66%.

On to `COc1cccc(C(C)(O)c2nc(-c3ccc(OC)c(OC)c3)cs2)c1` (stereo unspecified), for which the “activation” value is inactive: 12%.

As to `CCC(C)Nc1nc(N)c([N+](=O)[O-])c(Nc2ccccc2OC)n1` (stereo unspecified), the “activation” value was inactive: 25.2%.

As to `COc1ccc(CN(C(=O)c2cc(=O)c3cc(C)cc(C)c3o2)C2CCS(=O)(=O)C2)cc1` (stereo unspecified), the “activation” value was inactive: 3.75%.

Take `COc1ccc(-c2ccc(SCC(=O)N3CCCC3)nn2)cc1OC`: the “activation” value is inactive: 3.81%.

With `CCc1nc(SCCO)c2oc3ccccc3c2n1`, the “activation” value was inactive: 3.96%.

For `COc1ccc(OC)c(-c2nnc3n2N=C(c2ccc(OC)c(OC)c2)CS3)c1`, the Potency is active: 1.64 µM.

For `O=C(CNCC1CCCO1)Nc1ccccc1N1CCCCCC1` (stereo unspecified), the “activation” value is inactive: -0.276%.

On to `COc1ccc(CNC(=O)c2ccc(-c3cnn(C)c3)c3ccoc23)cc1OC`, for which the “activation” value was inactive: 14.6%.

On to `O=C(c1ccccc1)c1cccc2ccccc12`, for which the “activation” value was inactive: 0.431%.

Regarding `CCN(CC)C(=O)CCNS(=O)(=O)c1ccc(C)cc1`, the “activation” value was inactive: -1.94%.

For `CCOC(=O)c1oc2ccc(Br)cc2c1NC(=O)CN1CCN(C)CC1`, the “activation” value was inactive: 4.16%.

On to `COC(=O)c1ccc(CSc2nc(C(F)F)cc(C)c2C#N)o1`, for which the “activation” value was inactive: 5.32%.

Regarding `COc1ccc(O)c(C(=O)c2cnn(-c3ccccn3)c2)c1`, the “activation” value is inactive: 0.589%.

`COc1cccc(OC)c1C(=O)Nc1ccc(C(=O)c2ccncc2)cc1`: the “activation” value was inactive: -0.423%.

Source of the values: PubChem BioAssay AID743262 (National Center for Advancing Translational Sciences (NCATS), 2014).
